From the supplement of paper PMC11880418 come the findings set out here.

Structures can show the parent of a compound that is named as a salt. The list shows a part of the results. The data scatter; read single values as rough.

Among the test systems are MKN45; PANC1; SUM159; T84.
Common to all, as to test: ALDHbr (CSC) cell proportion score relative to DMSO vehicle (ratio to DMSO); breast (SUM159) / gastric (MKN45) / pancreatic (PANC1) / colon cancer lines; ALDHbr cells have high ALDH activity and are rich in cancer stem cells (CSC); higher = more CSC (ALDHbr) cells remaining
What all share (conditions): 10 µM; 72 h
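Note: High-content imaging of ALDEFLUOR-stained cells with Hoechst-labelled nuclei in 384-well plates, triplicate wells, scored as Z-score against 0.1% DMSO vehicle, negative meaning fewer ALDHbr cells.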

With `Oc1cc(Cl)ccc1Oc1ccc(Cl)cc1Cl` [Triclosan], the ALDHbr in the test on MKN45 was 1.14; in the test with PANC1, 0.996; in the test with SUM159, 1.22; in the test with T84 it was 1.
`C=CC[C@]1(O)CC[C@H]2[C@@H]3CCC4=CC(=O)CCC4=C3C=C[C@@]21C` [Altrenogest]: the ALDHbr worked out at 0.778 in the test on MKN45, 0.811 in the test with PANC1, 0.511 with SUM159 and 1.14 in the test on T84.
On the same counts, the results for `CN(C)[C@@H]1C(=O)C(C(N)=O)=C(O)[C@@]2(O)C(=O)C3=C(O)c4c(O)ccc(Cl)c4[C@@](C)(O)[C@H]3C[C@@H]12` [Chlortetracycline hydrochloride] are 0.947, 0.612, 0.821 and 1.05.
As for `CCn1cc(C(=O)O)c(=O)c2cc3c(cc21)OCO3` [Oxolinic acid], the ALDHbr with MKN45 worked out at 0.953; in the test with PANC1, 0.849; in the test with SUM159, 1.02; with T84, 0.921.
The corresponding values for `CC(C)(N)Cc1ccccc1` [Phentermine hydrochloride] are 1.25, 1.01, 1.08 and 1.13.
Turning to `CC(C)[N+](C)(CCC(C(N)=O)(c1ccccc1)c1ccccc1)C(C)C` [Isopropamide iodide], the ALDHbr worked out at 0.898 in the test on MKN45, 0.877 with PANC1, 0.994 in the test with SUM159 and 1.06 in the test on T84.
As to `CN1CCN(C(=O)O[C@H]2c3nccnc3C(=O)N2c2ccc(Cl)cn2)CC1` [Eszopiclone], the ALDHbr came to 0.871 in the test with MKN45, 0.946 with PANC1, 1.02 in the test on SUM159 and 1.05 with T84.
Regarding `NC(=O)CN1CCCC1=O` [Piracetam], the ALDHbr amounted to 1.08 in the test on MKN45, 0.929 in the test with PANC1, 1.06 in the test with SUM159 and 0.825 in the test on T84.
On the same counts, the results for `CCN(CC)C(C)C(=O)c1ccccc1` (stereo not given) [Amfepramone hydrochloride] are 0.942, 0.906, 1.01 and 0.921.
On the same counts, the results for `CNCC(O)c1ccc(O)cc1` (racemic) [(+,-)-Synephrine] are 0.988, 0.922, 1.97 and 0.866.
In the case of `C1CCc2nnnn2CC1` [Pentylenetetrazole], the ALDHbr was found to be 0.864 with MKN45, 1.03 in the test on PANC1, 0.953 in the test with SUM159 and 1.14 with T84.
As to `CC(Cc1ccccc1)NCCC(c1ccccc1)c1ccccc1` (stereo not given) [Prenylamine lactate], the ALDHbr in the test with MKN45 worked out at 1.51; with PANC1, 0.885; in the test on SUM159 it was 0.937; in the test on T84, 0.0795.
Regarding `O=c1[nH]c2ccccc2n1C1CCN(CCCC(c2ccc(F)cc2)c2ccc(F)cc2)CC1` [Pimozide], the ALDHbr with MKN45 was found to be 0.582; in the test with PANC1, 1.03; with SUM159, 1.06; in the test with T84, 0.147.
Turning to `CC[C@H](C)[C@H]1O[C@]2(C=C[C@@H]1C)C[C@@H]1C[C@@H](C/C=C(\C)[C@@H](O[C@H]3C[C@H](OC)[C@@H](O[C@H]4C[C@H](OC)[C@@H](O)[C@H](C)O4)[C@H](C)O3)[C@@H](C)/C=C/C=C3\CO[C@@H]4[C@H](O)C(C)=C[C@@H](C(=O)O1)[C@]34O)O2.CO[C@H]1C[C@H](O[C@H]2[C@H](C)O[C@@H](O[C@@H]3/C(C)=C/C[C@@H]4C[C@@H](C[C@]5(C=C[C@H](C)[C@@H](C(C)C)O5)O4)OC(=O)[C@@H]4C=C(C)[C@@H](O)[C@H]5OC/C(=C\C=C\[C@@H]3C)[C@]54O)C[C@@H]2OC)O[C@@H](C)[C@@H]1O` [Avermectin B1], the ALDHbr worked out at 0.295 with MKN45, 1.19 in the test on PANC1, 1.21 in the test with SUM159 and 0.638 in the test on T84.
In the case of `CN(C)[C@@H]1C(=O)C(C(N)=O)=C(O)[C@@]2(O)C(=O)C3=C(O)c4c(O)cccc4[C@@](C)(O)[C@H]3[C@H](O)[C@@H]12` [Oxytetracycline dihydrate], the ALDHbr in the test on MKN45 was determined as 0.864; in the test with PANC1, 0.575; in the test with SUM159 it was 0.876; in the test with T84, 0.887.
In the case of `C[C@]12CC[C@H](O)C[C@@H]1CC[C@@H]1[C@@H]2CC[C@]2(C)C(=O)CC[C@@H]12` [Epiandrosterone], the ALDHbr in the test on MKN45 came to 0.711; in the test with PANC1, 0.91; with SUM159, 0.815; with T84 it was 0.861.
With `COc1ccc(C(CN(C)C)C2(O)CCCCC2)cc1` (stereo not given) [Venlafaxine], the ALDHbr in the test on MKN45 came out at 1.09; with PANC1 it was 0.862; in the test on SUM159, 1.38; in the test with T84, 0.912.
As for `CO[C@]12C[C@@H](COC(=O)c3cncc(Br)c3)CN(C)[C@@H]1Cc1cn(C)c3cccc2c13` [Nicergoline], the ALDHbr in the test with MKN45 was 1.2; in the test with PANC1, 0.812; in the test on SUM159, 1.37; in the test with T84, 1.06.
For `CC(=O)OC1CN2CCC1CC2` (stereo not given) [Aceclidine Hydrochloride], the ALDHbr with MKN45 turned out to be 1.07; in the test with PANC1, 1.04; with SUM159, 1.46; in the test on T84, 1.15.
Turning to `CC(N)C(O)c1ccccc1` (stereo not given) [Phenylpropanolamine hydrochloride], the ALDHbr with MKN45 amounted to 1.15; in the test with PANC1, 0.944; in the test on SUM159 it was 1.99; in the test with T84, 0.865.
In the case of `CC(=O)O[C@H]1C[C@@H]2CC[C@@H]3[C@H](CC[C@@]4(C)[C@H]3C[C@H]([N+]3(C)CCCCC3)[C@@H]4OC(C)=O)[C@@]2(C)C[C@@H]1[N+]1(C)CCCCC1` [Pancuronium bromide], the ALDHbr with MKN45 worked out at 1.1; in the test with PANC1, 0.894; with SUM159, 0.934; with T84, 1.04.
On the same counts, the results for `O=[N+]([O-])O[C@H]1CO[C@H]2[C@@H]1OC[C@H]2O[N+](=O)[O-]` [Isosorbide dinitrate] are 0.0753, 0.635, 0.0324 and 0.199.
Regarding `S=C(NC1CCCCC1)N1CCC(c2cnc[nH]2)CC1` [Thioperamide maleate], the ALDHbr in the test on MKN45 was found to be 0.901; in the test with PANC1, 1.06; in the test on SUM159 it was 0.961; in the test on T84, 1.02.
Regarding `CC(C)C[C@H]1C(=O)N2CCC[C@H]2[C@]2(O)O[C@](NC(=O)[C@@H]3C=C4c5cccc6[nH]c(Br)c(c56)C[C@H]4N(C)C3)(C(C)C)C(=O)N12` [Bromocryptine mesylate], the ALDHbr came out at 0.571 in the test with MKN45, 0.601 with PANC1, 0.31 with SUM159 and 0.724 in the test on T84.
The corresponding values for `NCC1(CC(=O)O)CCCCC1` [Gabapentin] are 1.26, 0.871, 1.14 and 0.955.
